# “And” between values parts separate entries of the source, which are not always exact repeats. Equal entries are not always repeated. In all, about 420,000 compounds went through this assay and about 64,000 (15%) were called active. The inconclusive results got no clear call from the source; some entries with a clear call stand among them for comparison. The call rests on the fitted dose curve; in most records, active means well fitted inhibition curve with a large enough effect; inconclusive means small, poorly fitted or top-dose-only effect; inactive means flat fitted curve, though single readings scatter. Where the call is inconclusive, the potency comes from a doubtful curve fit.
# Assay: qHTS for Inhibitors of human tyrosyl-DNA phosphodiesterase 1 (TDP1): qHTS in cells in absence of CPT; further: nearly all actives have a fitted effect of over 55% in size
# Conditions: DT40 Tdp1-/- hTDP1 cells, no CPT, ATP luminescence, 48 h; activity change, negative = growth inhibition: at 46.2 µM (top of the series) unless noted
# Outline: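 Compound effects on proliferation are scored in DT40 Tdp1-/-;hTDP1 cells in the absence of CPT. ATP levels (CellTiter-Glo luminescence) are recorded after a ≥48 hr, 37 °C incubation.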
# On the % scale 0 is the no-effect control and ±100 the full control effect; potency means the concentration at half of the fitted maximal effect; tags describe the fitted curve by direction and shape.
Structure (SMILES),Potency,"activity change, negative = growth inhibition"
CCOC(=O)/C=C/C(=O)Nc1ccccc1-c1ccccc1NC(=O)/C=C/C(=O)OCC,active: 5.17 µM,–
Cc1ccnc(SC2CC(=O)N(c3ccc(C(C)C)cc3)C2=O)n1 (stereo unspecified),"inconclusive: 23.1 µM [inhibitor, single point]",–
Cc1cccc(OCC(=O)Nc2cccc(-c3nnc(-c4ccccc4)o3)c2)c1C,–,inconclusive: -33% [inhibitor]
Cc1cc(-c2ccc(C(C)C)c(S(=O)(=O)Nc3ccccn3)c2)on1,inactive,–
CCCN1/C(=C(/C#N)C2=NS(=O)(=O)c3ccccc32)N(C)c2ccccc21,inactive,–
COc1cc(/C=C2/C(=O)NN(c3cccc(C)c3)C2=O)ccc1OC(=O)c1ccco1,"inconclusive: 29.1 µM [inhibitor, single point]",–
COc1cc(/C(C)=N/N2CCN(Cc3ccc(C)cc3)CC2)ccc1O,"inconclusive: 20.6 µM [inhibitor, single point]",–
O=C(NCC(c1ccco1)N1CCCCC1)c1cnc(Cl)c(Cl)c1 (stereo unspecified),"inconclusive: 18.4 µM [inhibitor, single point]",–
O=C1CCc2cc(OCCCCc3nnnn3C3CCCCC3)ccc2N1,active: 16.4 µM,–
N=C1/C(=C/c2coc3ccccc3c2=O)C(=O)N=C2SC(c3ccco3)=NN12,"inconclusive: 23.1 µM [inhibitor, partial curve]",–
CCOc1cc(C2c3c(n[nH]c3C)C(=O)N2c2ccc(Br)cc2)ccc1O (stereo unspecified),inactive,–
COc1ccc(C(=O)NCC(c2ccc3c(c2)OCO3)N2CCN(c3ccccc3F)CC2)cc1 (stereo unspecified),active: 5.17 µM,–
Cc1ccc(N2CCN(S(=O)(=O)N(C)C)CC2)c(C)c1,"inconclusive: 18.4 µM [inhibitor, single point]",–
COc1cccc(N=Nc2c(=O)[nH]n3c(=O)c4c([nH]c23)CCC4)c1,"inconclusive: 16.4 µM [inhibitor, partial curve, poor fit]",–
O=C(NCCCN1CCc2ccccc2C1)C1CCN(S(=O)(=O)N2CCCC2)CC1,inactive,–
COc1ccc(-c2nnc(SCC(=O)N/N=C/c3ccccc3C(=O)O)n2-c2ccccc2)cc1,inactive,–
C=CCN(C(=O)c1csnn1)C(C(=O)NC1CCCCC1)c1ccc(F)cc1 (stereo unspecified),inactive,–
Cc1onc(-c2c(Cl)cccc2Cl)c1C(=O)NC(=S)N1CCOCC1,"inconclusive: 29.1 µM [inhibitor, single point]",–
CC1CC(C)CN(c2ccc(C(=O)NCc3ccc4c(c3)OCO4)cc2[N+](=O)[O-])C1 (stereo unspecified),inactive,–
CCC1(C2CCN(C(=O)c3coc4c3C(=O)CCC4)CC2)NC(=O)N(CCc2scnc2C)C1=O (stereo unspecified),inactive,–
N#Cc1cnn(-c2ccccc2)c1NC(=O)CN1CCN(c2ccccc2)CC1,active: 23.1 µM,–
CCCCCc1cc(=O)oc2c(C(CCN3CCCCC3)c3ccc4c(c3)OCO4)c(OC)cc(OC)c12 (stereo unspecified),"inconclusive: 23.1 µM [inhibitor, single point]",–
O=C(Cc1csc(-c2ccccc2)n1)NCC(=O)Nc1ccc(F)c(F)c1F,inactive,–
COc1ccc(CNC(=O)C2(C)Cc3c(-c4ccc(C(N)=O)cc4)ccnc3O2)cc1OC (stereo unspecified),inactive,–

Structure (SMILES),Potency,"activity change, negative = growth inhibition"
COc1ccc(CN2CC[C@H]3C=CC[C@@H](C(=O)NCCc4ccccc4)[C@H]3C2=O)cc1OC,"inconclusive: 25.1 µM [inhibitor, single point] and inconclusive: 29.1 µM [inhibitor, single point]",–
C=CCn1c(SCc2ccc(F)cc2)nc2c1c(=O)[nH]c(=O)n2C,–,inconclusive: -30.5% [inhibitor]
CCN1CCN(c2c(Cl)cccc2NC(=O)c2ccc(Br)o2)CC1,active: 16.4 µM,–
O=C(O)c1ccc(NC(=O)c2cccc(C(=O)Nc3ccc(C(=O)O)cc3)n2)cc1,"inconclusive: 0.13 µM [inhibitor, partial curve, poor fit]",–
O=C(Cc1c(Cl)cccc1Cl)N1CCN(S(=O)(=O)c2cccs2)CC1,"inconclusive: 23.1 µM [inhibitor, single point]",–
O=C(O)c1cccc(-n2c(/C=C/c3cccc([N+](=O)[O-])c3)nc3ccccc3c2=O)c1,inactive,–
O=c1c2ccccc2c(C=NCc2ccccn2)c(O)n1-c1ccccc1,"inconclusive: 23.1 µM [inhibitor, single point]",–
CCCc1ccc(-c2cc(C(=O)Nc3ccc([N+](=O)[O-])cn3)c3ccccc3n2)cc1,"inconclusive: 29.1 µM [inhibitor, single point]",–
O=C(CCc1nc2ccccc2c(=O)[nH]1)NCc1cccc(Cl)c1,active: 23.1 µM,–
Cc1ccc(S(=O)(=O)N(C)C)cc1NC(=O)CSc1nc2ccccc2c(=O)n1CC1CCCO1 (stereo unspecified),"inconclusive: 29.1 µM [inhibitor, single point]",–
COC(=O)C1CCN(C(=O)COC(=O)CSc2ccc(C(N)=O)cc2[N+](=O)[O-])CC1,inactive,–
Cc1ccc(C)c(SCC(=O)Nc2nnc(-c3ccccc3)o2)c1,"inconclusive: 15.8 µM [inhibitor, single point]",–
Cc1ccc(CN(CC(=O)NCCc2ccccc2)C(=O)CCCC(=O)Nc2cc(C)on2)cc1,"inconclusive: 29.1 µM [inhibitor, single point]",–
CCc1ccc(NC(=O)Cn2c(=O)n(CCCCC(=O)NCCc3ccc(Cl)cc3)c(=O)c3ccccc32)cc1,"inconclusive: 14.6 µM [inhibitor, partial curve, poor fit]",–
Cc1ccc(N2C(=N)/C(=C3/Nc4ccccc4S3)C(c3ccccc3)C2=O)cc1 (stereo unspecified),active: 4.61 µM,–
COc1ccccc1N(CC(=O)Nc1ccc(Br)cc1F)S(=O)(=O)c1cccs1,"inconclusive: 29.1 µM [inhibitor, single point]",–
C[C@@H]1CN([C@H](C)CO)S(=O)(=O)c2ccc(Br)cc2O[C@H]1CN(C)C(=O)Nc1ccccc1,"inconclusive: 18.4 µM [inhibitor, single point]",–
CC(=O)OCC(=O)[C@@]1(O)CC[C@H]2[C@@H]3CCC4=CC(=O)C=C[C@]4(C)[C@H]3C(=O)C[C@@]21C,inactive,–
CCCn1nc(NS(=O)(=O)c2cccc3nonc23)c2cc3cc(C)ccc3nc21,inactive,–
Cc1nn(Cc2ccccc2)c(Cl)c1C(=O)OC(C)C#N (stereo unspecified),"inconclusive: 20.6 µM [inhibitor, single point]",–
COc1cc(OC)c(C(=O)N/N=C/c2ccoc2)cc1OC,inactive,–
CC1(C)OC(=O)N(CCC(=O)Nc2cccc(F)c2)C1(C)O (stereo unspecified),inactive,–
COc1cc(OC)cc(-c2nc(-c3ccc4c(c3)[nH]c(=O)n4C)no2)c1,inactive,–
O=S(=O)(c1ccc(NC(=S)NCc2cccnc2)cc1)N1CCCCC1,active: 6.51 µM,–

Structure (SMILES),Potency,"activity change, negative = growth inhibition"
CC/C(C)=N/Nc1ccc(S(=O)(=O)N2CCCC2)cc1[N+](=O)[O-],"inconclusive: 23.1 µM [inhibitor, single point]",–
O=C(Nc1ccccc1Cl)N1CCN(Cc2ccc3c(c2)OCO3)CC1,inactive,–
CCOC(=O)c1sc(NC(=O)C(CC)Sc2nc3ccccc3[nH]2)nc1C (stereo unspecified),"inconclusive: 25.9 µM [inhibitor, partial curve]",–
Cc1ccc2ncc(C(=O)Nc3ccc(OC(F)(F)F)cc3)c(=O)n2c1,"inconclusive: 6.51 µM [inhibitor, single point]",–
CC1(C)Cc2nc(NC3CCCCC3)c(C#N)cc2CO1,active: 23.1 µM,–
CCOC(=O)c1c(NC(=O)c2nc(S(C)(=O)=O)ncc2Cl)sc(C(C)=O)c1C,active: 0.92 µM,–
C/C(=C(\CCOC(=O)c1ccccc1)SS/C(CCOC(=O)c1ccccc1)=C(/C)N(C=O)Cc1cnc(C)nc1N)N(C=O)Cc1cnc(C)nc1N,"inconclusive: 10.6 µM [inhibitor, partial curve, poor fit]",–
CCCCNc1nnc(SCC(=O)c2c(N)n(C3CC3)c(=O)[nH]c2=O)s1,inactive,–
C=CC(=O)Nc1ccc(CN2C(=O)N(c3c(Cl)c(OC)cc(OC)c3Cl)Cc3cnc(NCCCCN(CC)CC)nc32)cc1,active: 13 µM,–
Cn1c(=O)c2c(nc(OC3CCCC3)n2C)n(C)c1=O,inactive,–
C=C(C)Cn1c2ccc(NC(=O)NCC)cc2c(=O)n1C,inactive,–
O=C(OCCCN1C(=O)c2ccccc2C1=O)c1ccco1,"inconclusive: 29.1 µM [inhibitor, single point]",–
Cc1ccc(-c2cc(C(=O)NCc3ccccc3Cl)c3ccccc3n2)cc1C,"inconclusive: 20.6 µM [inhibitor, single point]",–
Cc1ccc(-c2nnc(-c3ccccc3)o2)cc1,–,inconclusive: -31.1% [inhibitor]
COC(CNS(=O)(=O)c1cccc2nonc12)OC,inactive,–
CC(=O)OCC1OC(n2cnc3c(=O)[nH]cnc32)C(OC(C)=O)C1OC(C)=O (stereo unspecified),inactive,–
[O-][n+]1c(/C=C/c2ccccc2)ccc2ccccc21,active: 16.4 µM,–
COc1cccc(CNC(=O)C2CCN(S(=O)(=O)c3ccc4c(c3)CCCN4C(C)=O)CC2)c1,"inconclusive: 14.6 µM [inhibitor, single point]",–
Cc1cc(C(=O)OCC(=O)NC2CCCCC2C)c2ccccc2n1 (stereo unspecified),inactive,–
CCn1c(=O)c(C(=O)NCc2ccc(OC)c(OC)c2)c(O)c2ccccc21,"inconclusive: 29.1 µM [inhibitor, single point]",–
CC(=O)c1cccc(NS(=O)(=O)c2ccc(N/C=C\C(=O)c3ccc(F)cc3)cc2)c1,active: 10.3 µM,–
COc1ccc(CCNC(=O)c2ccc(CS(=O)(=O)Cc3ccc(C)cc3)o2)cc1OC,active: 23.1 µM,–
NC(N)=NCC1COC2(CCCCC2)O1 (stereo unspecified),inactive,–
